Assay results taken from publication PMC4336329 (PLoS ONE, 2015).
The whole screen tested about 310,000 compounds, of which about 14,000 (4.5%) showed an effect of 50% or more. Effects have a minus sign here. Some of the results follow.

Biological target: human ether-à-go-go-related gene (hERG) potassium channel (human, UniProt Q12809)
Experiment: primary screen, population patch clamp on CHO cells stably expressing hERG
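Also: peak tail current of the secondary pulse compared with the same well before compound.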

human ether-à-go-go-related gene (hERG) potassium channel, sequence (Q12809 whole entry, looked up): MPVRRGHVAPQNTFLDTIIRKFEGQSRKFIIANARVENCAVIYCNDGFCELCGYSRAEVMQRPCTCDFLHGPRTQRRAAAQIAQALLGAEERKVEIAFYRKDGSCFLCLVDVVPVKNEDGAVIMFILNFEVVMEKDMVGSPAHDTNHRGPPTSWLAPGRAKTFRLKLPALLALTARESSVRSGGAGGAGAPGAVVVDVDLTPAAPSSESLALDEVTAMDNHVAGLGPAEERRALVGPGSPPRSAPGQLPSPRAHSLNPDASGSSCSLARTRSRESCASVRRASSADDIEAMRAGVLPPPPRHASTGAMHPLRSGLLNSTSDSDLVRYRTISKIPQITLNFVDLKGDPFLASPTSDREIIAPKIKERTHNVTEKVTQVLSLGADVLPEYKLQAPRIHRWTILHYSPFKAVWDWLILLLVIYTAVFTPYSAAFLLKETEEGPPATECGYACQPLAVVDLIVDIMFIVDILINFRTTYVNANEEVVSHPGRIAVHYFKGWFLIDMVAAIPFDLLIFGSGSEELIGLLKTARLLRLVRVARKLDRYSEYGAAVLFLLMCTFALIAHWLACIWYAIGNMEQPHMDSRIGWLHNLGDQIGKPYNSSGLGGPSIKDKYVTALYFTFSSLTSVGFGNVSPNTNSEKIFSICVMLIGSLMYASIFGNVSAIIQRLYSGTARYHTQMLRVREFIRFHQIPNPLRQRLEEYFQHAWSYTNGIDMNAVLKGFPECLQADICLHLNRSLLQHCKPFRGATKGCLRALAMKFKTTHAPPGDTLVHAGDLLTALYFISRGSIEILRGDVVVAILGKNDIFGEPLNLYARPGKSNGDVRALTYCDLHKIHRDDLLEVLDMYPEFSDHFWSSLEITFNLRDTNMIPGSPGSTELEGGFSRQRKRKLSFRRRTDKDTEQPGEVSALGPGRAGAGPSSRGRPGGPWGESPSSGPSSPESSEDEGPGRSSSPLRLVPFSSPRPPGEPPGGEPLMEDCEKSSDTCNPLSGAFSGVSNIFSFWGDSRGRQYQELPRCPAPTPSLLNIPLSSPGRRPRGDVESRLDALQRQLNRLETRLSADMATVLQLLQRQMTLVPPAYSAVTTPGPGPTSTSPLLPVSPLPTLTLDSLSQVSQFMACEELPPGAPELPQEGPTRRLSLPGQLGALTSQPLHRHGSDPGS

Q: With COC(=O)c1ccccc1NC(=O)CNCCc1ccc(OC)c(OC)c1 as the compound, how does the “hERG current change (%, negative = inhibition) at 10uM” value read?
A: -0.891%

Q: With COc1cc2ccccc2cc1C(=O)Nc1ccccc1Cl as the compound, how does the “hERG current change (%, negative = inhibition) at 10uM” value read?
A: 19%

Q: With CCN(CC)S(=O)(=O)c1ccc(OC(C)C)nc1 as the compound, how does the “hERG current change (%, negative = inhibition) at 10uM” value read?
A: -1.16%

Q: Which “hERG current change (%, negative = inhibition) at 10uM” value does the source give for Cc1ccc(S(=O)(=O)N(CC(=O)N(C)C)c2cccc([N+](=O)[O-])c2)cc1 here?
A: -18.2%

Q: For CCn1c2ccccc2c2cc(C3N=C(N)Nc4nc5ccccc5n43)ccc21 (centres unmarked), which “hERG current change (%, negative = inhibition) at 10uM” value is on record?
A: -9.28%

Q: With CCOC(=O)N/N=C/c1ccc(C)o1 as the compound, how does the “hERG current change (%, negative = inhibition) at 10uM” value read?
A: -0.825%

Q: How did the “hERG current change (%, negative = inhibition) at 10uM” value turn out when Cc1nnc(NC(=O)CSc2nnc(-c3ccco3)o2)s1 was run?
A: 15.1%

Q: For CC(=O)c1ccc(N(CC(=O)NC2CCCC2)C(=O)c2ccc(C)s2)cc1, which “hERG current change (%, negative = inhibition) at 10uM” value is on record?
A: -3.08%

Q: For COc1ccc(-c2sc(Nc3ccc(F)c(F)c3F)nc2CCC(=O)NN)cc1, which “hERG current change (%, negative = inhibition) at 10uM” value is on record?
A: 17%

Q: With CCOc1ncccc1C(=O)OCC(=O)Nc1ccc(S(=O)(=O)N2CCOCC2)cc1 as the compound, how does the “hERG current change (%, negative = inhibition) at 10uM” value read?
A: -1.11%

Q: With COc1cc(/C=C/C(=O)Nc2cccnc2)cc(OC)c1OC as the compound, how does the “hERG current change (%, negative = inhibition) at 10uM” value read?
A: 9.62%

Q: O=C(O)c1ccc(S(=O)(=O)N2CCCc3ccccc32)cc1 was tested. Which “hERG current change (%, negative = inhibition) at 10uM” value did it give?
A: 19.7%

Q: With OC[C@H]1OC(O)C[C@@H](O)[C@@H]1O (some centres unmarked) as the compound, how does the “hERG current change (%, negative = inhibition) at 10uM” value read?
A: 3.65%

Q: For Cc1ccccc1N(CC(=O)NC1CCCCC1)C(=O)c1csnn1, which “hERG current change (%, negative = inhibition) at 10uM” value is on record?
A: 8.46%

Q: CCCCCCOc1ccc(C(CC(N)=O)C(=O)O)cc1 (centres unmarked) was tested. Which “hERG current change (%, negative = inhibition) at 10uM” value did it give?
A: 27.5%

Q: Which “hERG current change (%, negative = inhibition) at 10uM” value does the source give for COc1ccc2nc(SCc3ccccc3)nc(C)c2c1 here?
A: 6.57%

Q: With N#Cc1ccc(CSCC(=O)O)cc1 as the compound, how does the “hERG current change (%, negative = inhibition) at 10uM” value read?
A: 3.78%

Q: CC(=O)N1CCN(C(=O)c2ccc(S(=O)(=O)Nc3ccccc3Cl)cc2)CC1 was tested. Which “hERG current change (%, negative = inhibition) at 10uM” value did it give?
A: 9.8%

Q: How did the “hERG current change (%, negative = inhibition) at 10uM” value turn out when CC(=O)c1ccc2c(c1)C1C=CCC1C(c1ccc(S(=O)(=O)N3CCOCC3)cc1)N2 (centres unmarked) was run?
A: 13.5%

Q: With CCC(Oc1ccccc1)C(=O)Nc1ccccc1C(=O)N1CCN(C)CC1 (centres unmarked) as the compound, how does the “hERG current change (%, negative = inhibition) at 10uM” value read?
A: 0.0528%

Q: Which “hERG current change (%, negative = inhibition) at 10uM” value does the source give for Cc1c(C)c(C)c2[nH]c(=S)[nH]c2c1C here?
A: 24.9%

Q: With Cc1ccc(NS(=O)(=O)c2ccc(C(=O)N3CCC3)cc2)cc1 as the compound, how does the “hERG current change (%, negative = inhibition) at 10uM” value read?
A: 15.7%

Q: Which “hERG current change (%, negative = inhibition) at 10uM” value does the source give for Cc1ccc(NC2=NC(c3ccc(F)cc3)n3c(nc(C)cc3=O)N2)cc1 (centres unmarked) here?
A: 19%

Q: N/C(=N\OC(=O)c1ccccc1Cl)c1cccnc1 was tested. Which “hERG current change (%, negative = inhibition) at 10uM” value did it give?
A: -13.3%

Q: O=C(/C=C/c1ccc([N+](=O)[O-])cc1)OCC(=O)N1c2ccccc2Sc2ccccc21 was tested. Which “hERG current change (%, negative = inhibition) at 10uM” value did it give?
A: -7.57%

Q: How did the “hERG current change (%, negative = inhibition) at 10uM” value turn out when COCCCn1c(CCC(=O)O)ccc1-c1ccc(F)cc1 was run?
A: 7.93%
